Positions count from the first letter of the chain named. The list shows a part of the results.

T1: RBFOX1 RRM (Homo sapiens, UniProt Q9NWB1 109-208)
T1 sequence: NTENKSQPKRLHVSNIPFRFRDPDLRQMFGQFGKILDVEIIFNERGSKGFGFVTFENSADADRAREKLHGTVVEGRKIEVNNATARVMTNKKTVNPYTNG

B1: UGGUGGA (DNA:RNA)
RNA: GGGAGACCGGAAUUCAGAUUGUCCUGGUGGAUUAAAUCCCGUCGUAGCCACCA
DNA 1: CAATCTGAATTCCGGTCTCCC
DNA 2: TGGTGGCTACGACGGGATT
B2: UUGUUGG (DNA:RNA)
RNA: B1 RNA with G26U, G29U, A31G
DNA 1: CAATCTGAATTCCGGTCTCCC
DNA 2: TGGTGGCTACGACGGGATT
B3: CCCGUGU (DNA:RNA)
RNA: B1 RNA with U25C, G26C, G27C, U28G, G29U, A31U
DNA 1: CAATCTGAATTCCGGTCTCCC
DNA 2: TGGTGGCTACGACGGGATT
B4: UCUCCGC (DNA:RNA)
RNA: B1 RNA with G26C, G27U, U28C, G29C, A31C
DNA 1: CAATCTGAATTCCGGTCTCCC
DNA 2: TGGTGGCTACGACGGGATT
B5: CUAAAGU (DNA:RNA)
RNA: B1 RNA with U25C, G26U, G27A, U28A, G29A, A31U
DNA 1: CAATCTGAATTCCGGTCTCCC
DNA 2: TGGTGGCTACGACGGGATT
B6: CUUGGUA (DNA:RNA)
RNA: B1 RNA with U25C, G26U, G27U, U28G, G30U
DNA 1: CAATCTGAATTCCGGTCTCCC
DNA 2: TGGTGGCTACGACGGGATT
B7: CAGCCGU (DNA:RNA)
RNA: B1 RNA with U25C, G26A, U28C, G29C, A31U
DNA 1: CAATCTGAATTCCGGTCTCCC
DNA 2: TGGTGGCTACGACGGGATT
B8: CGUUAUA (DNA:RNA)
RNA: B1 RNA with U25C, G27U, G29A, G30U
DNA 1: CAATCTGAATTCCGGTCTCCC
DNA 2: TGGTGGCTACGACGGGATT
B9: CUGUUCG (DNA:RNA)
RNA: B1 RNA with U25C, G26U, G29U, G30C, A31G
DNA 1: CAATCTGAATTCCGGTCTCCC
DNA 2: TGGTGGCTACGACGGGATT
B10: UUGAGGA (DNA:RNA)
RNA: B1 RNA with G26U, U28A
DNA 1: CAATCTGAATTCCGGTCTCCC
DNA 2: TGGTGGCTACGACGGGATT
B11: CAUUAUA (DNA:RNA)
RNA: B1 RNA with U25C, G26A, G27U, G29A, G30U
DNA 1: CAATCTGAATTCCGGTCTCCC
DNA 2: TGGTGGCTACGACGGGATT
B12: AAUGAGC (DNA:RNA)
RNA: B1 RNA with U25A, G26A, G27U, U28G, G29A, A31C
DNA 1: CAATCTGAATTCCGGTCTCCC
DNA 2: TGGTGGCTACGACGGGATT
B13: AGACGAC (DNA:RNA)
RNA: B1 RNA with U25A, G27A, U28C, G30A, A31C
DNA 1: CAATCTGAATTCCGGTCTCCC
DNA 2: TGGTGGCTACGACGGGATT
B14: CGACACU (DNA:RNA)
RNA: B1 RNA with U25C, G27A, U28C, G29A, G30C, A31U
DNA 1: CAATCTGAATTCCGGTCTCCC
DNA 2: TGGTGGCTACGACGGGATT
B15: UUAUUAG (DNA:RNA)
RNA: B1 RNA with G26U, G27A, G29U, G30A, A31G
DNA 1: CAATCTGAATTCCGGTCTCCC
DNA 2: TGGTGGCTACGACGGGATT
B16: CUCCGAC (DNA:RNA)
RNA: B1 RNA with U25C, G26U, G27C, U28C, G30A, A31C
DNA 1: CAATCTGAATTCCGGTCTCCC
DNA 2: TGGTGGCTACGACGGGATT
B17: GCCUUCG (DNA:RNA)
RNA: B1 RNA with U25G, G26C, G27C, G29U, G30C, A31G
DNA 1: CAATCTGAATTCCGGTCTCCC
DNA 2: TGGTGGCTACGACGGGATT
B18: UAGCUAG (DNA:RNA)
RNA: B1 RNA with G26A, U28C, G29U, G30A, A31G
DNA 1: CAATCTGAATTCCGGTCTCCC
DNA 2: TGGTGGCTACGACGGGATT
B19: CGGGUGG (DNA:RNA)
RNA: B1 RNA with U25C, U28G, G29U, A31G
DNA 1: CAATCTGAATTCCGGTCTCCC
DNA 2: TGGTGGCTACGACGGGATT
B20: CUCACUU (DNA:RNA)
RNA: GGGAGACCGGAAUUCAGAUUGUCCCUCACUUUUAAAUCCCGUCGUAGCCACCA
DNA 1: CAATCTGAATTCCGGTCTCCC
DNA 2: TGGTGGCTACGACGGGATT
B21: ACCUUAG (DNA:RNA)
RNA: B20 RNA with C25A, U26C, A28U, C29U, U30A, U31G
DNA 1: CAATCTGAATTCCGGTCTCCC
DNA 2: TGGTGGCTACGACGGGATT
B22: AUCGGGA (DNA:RNA)
RNA: B1 RNA with U25A, G26U, G27C, U28G
DNA 1: CAATCTGAATTCCGGTCTCCC
DNA 2: TGGTGGCTACGACGGGATT
B23: CUCUCGU (DNA:RNA)
RNA: B20 RNA with A28U, U30G
DNA 1: CAATCTGAATTCCGGTCTCCC
DNA 2: TGGTGGCTACGACGGGATT
B24: UCUCUUA (DNA:RNA)
RNA: B1 RNA with G26C, G27U, U28C, G29U, G30U
DNA 1: CAATCTGAATTCCGGTCTCCC
DNA 2: TGGTGGCTACGACGGGATT
B25: CGAAUGG (DNA:RNA)
RNA: B20 RNA with U26G, C27A, C29U, U30G, U31G
DNA 1: CAATCTGAATTCCGGTCTCCC
DNA 2: TGGTGGCTACGACGGGATT
B26: UGUGAGA (DNA:RNA)
RNA: B1 RNA with G27U, U28G, G29A
DNA 1: CAATCTGAATTCCGGTCTCCC
DNA 2: TGGTGGCTACGACGGGATT
B27: CGAAUCG (DNA:RNA)
RNA: B20 RNA with U26G, C27A, C29U, U30C, U31G
DNA 1: CAATCTGAATTCCGGTCTCCC
DNA 2: TGGTGGCTACGACGGGATT
B28: UUAUAUC (DNA:RNA)
RNA: B20 RNA with C25U, C27A, A28U, C29A, U31C
DNA 1: CAATCTGAATTCCGGTCTCCC
DNA 2: TGGTGGCTACGACGGGATT
B29: UAAUGAG (DNA:RNA)
RNA: B1 RNA with G26A, G27A, G30A, A31G
DNA 1: CAATCTGAATTCCGGTCTCCC
DNA 2: TGGTGGCTACGACGGGATT
B30: ACCCCUC (DNA:RNA)
RNA: B20 RNA with C25A, U26C, A28C, U31C
DNA 1: CAATCTGAATTCCGGTCTCCC
DNA 2: TGGTGGCTACGACGGGATT
B31: UGCCAUA (DNA:RNA)
RNA: B1 RNA with G27C, U28C, G29A, G30U
DNA 1: CAATCTGAATTCCGGTCTCCC
DNA 2: TGGTGGCTACGACGGGATT

The experiment deals with T1, RBFOX1 RRM. The experiment can be described thus: EMSA; HiTS-Eq, 1 nM pool, 10 min; buffer printed only for the single-RNA assays: 10 mM Tris pH 7.5, 150 mM NaCl, 3.4 mM EDTA, 0.001% NP-40, 30 C. To be noted: tags: His6 N-terminal (pET28a); label: 5' 32P. Put shortly: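 These values rest on relative association constants, computed from read-count changes of each RNA species versus the control reaction and normalised to the cognate motif. Reads came from free RNA recovered by 8% native PAGE after purified RbFox RRM (wild type or mutant) at increasing concentrations was equilibrated for 10 min in 50 µL with 1 nM of a 5′-radiolabelled pool with 7 randomized nucleotides and DNA-annealed flanks.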
For the molecule B1, the binding signal was 0.00965 KA relative to UGCAUGU.

Consider B2, for which the binding signal is 0.0248 KA relative to UGCAUGU.

For B3, the binding signal is 0.0104 KA relative to UGCAUGU.

In the case of B4, the binding signal is 0.00688 KA relative to UGCAUGU.

For B5, the binding signal was 0.00449 KA relative to UGCAUGU.

On to B6, for which the binding signal is 0.0154 KA relative to UGCAUGU.

With B7, the binding signal was 0.00514 KA relative to UGCAUGU.

In the case of B8, the binding signal was 0.00282 KA relative to UGCAUGU.

Regarding B9, the binding signal is 0.0279 KA relative to UGCAUGU.

Regarding B10, the binding signal was 0.00625 KA relative to UGCAUGU.

Consider B11, for which the binding signal is 0.00129 KA relative to UGCAUGU.

With B12, the binding signal was 0.00453 KA relative to UGCAUGU.

Turning to B13, the binding signal was 0.00668 KA relative to UGCAUGU.

For B14, the binding signal is 0.00458 KA relative to UGCAUGU.

Regarding B15, the binding signal was 0.0112 KA relative to UGCAUGU.

Take B16: the binding signal was 0.00912 KA relative to UGCAUGU.

Take B17: the binding signal is 0.0176 KA relative to UGCAUGU.

With B18, the binding signal is 0.0203 KA relative to UGCAUGU.

Consider B19, for which the binding signal is 0.0171 KA relative to UGCAUGU.

For B20, the binding signal is 0.00341 KA relative to UGCAUGU.

Consider B21, for which the binding signal was 0.00468 KA relative to UGCAUGU.

In the case of B22, the binding signal is 0.00823 KA relative to UGCAUGU.

On to B23, for which the binding signal is 0.00829 KA relative to UGCAUGU.

As for B24, the binding signal is 0.00398 KA relative to UGCAUGU.

Take B25: the binding signal is 0.0141 KA relative to UGCAUGU.

Regarding B26, the binding signal is 0.0236 KA relative to UGCAUGU.

As for B27, the binding signal was 0.00827 KA relative to UGCAUGU.

With B28, the binding signal is 0.00257 KA relative to UGCAUGU.

For B29, the binding signal was 0.0138 KA relative to UGCAUGU.

In the case of B30, the binding signal was 0.00175 KA relative to UGCAUGU.

Take B31: the binding signal is 0.0099 KA relative to UGCAUGU.

The values are drawn from paper PMC9911399, “Two distinct binding modes provide the RNA-binding protein RbFox with extraordinary sequence specificity”.
